{
  "source": "PubChem BioAssay AID686971",
  "about": "(National Center for Advancing Translational Sciences (NCATS), 2013)",
  "note": "The campaign covered roughly 360,000 compounds. About 7,500 (2.1%) were called active. This list was built around the results that the source calls inconclusive (neither active nor inactive); the mix of calls is not that of the screen. Calls come from the whole dose curve; as a rule, active = well fitted cell-killing curve with a large enough effect; inconclusive = small, poorly fitted or top-dose-only effect, or effect the other way, or another doubt; inactive = no such curve, though single readings can be large or run the other way. No potency is given beside an inconclusive call; the fits are too rough. Potency is the fitted concentration of half-maximal effect; tags give direction and shape of the fitted curve.",
  "data": [
    {"test": "qHTS for induction of synthetic lethality in tumor cells producing 2HG: qHTS for the HT-1080-IDH1KD cell line;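 for activity, negative = toxicity: 0% = DMSO wells and -100% = cell-free medium wells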", "settings": "HT-1080 IDH1 knockdown viability, ATP luminescence, 48 h; activity, negative = toxicity: at 46.1 µM (top of the series) unless noted", "procedure,_shortened": "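CellTiter-Glo luminescence after 48 h compound exposure at 37 degrees C of IDH1-knockdown HT-1080 cells in 5% FBS RPMI. %Activity scaled between DMSO wells and cell-free media wells, with curves fitted and assigned curve classes.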", "values": [
      {"smiles": "Cc1ccc(S(=O)(=O)N(C)CC(=O)N(C)Cc2cccs2)cc1", "Potency": "inactive"},
      {"smiles": "c1cc2c(cc1C1=NNC(=NC3CC3)SC1)OCCO2", "Potency": "active: 11.6 µM"},
      {"smiles": "O=C(Cc1ccc(-n2cccc2)cc1)NCc1cccs1", "Potency": "active: 2.59 µM"},
      {"smiles": "Cc1cc(SCC(=O)Nc2ccccc2)n2ncc(-c3ccccc3)c2n1", "Potency": "inactive"},
      {"smiles": "CCCCn1nnnc1C(c1cc2ccccc2o1)N1CCN(c2cc(C)nc3ccccc23)CC1", "note": "(configuration not stated)", "Potency": "inconclusive [cytotoxic, single point]"},
      {"smiles": "O=C(NC(=S)Nc1cccc(S(=O)(=O)NC2=NCCC2)c1)c1cc(-c2ccco2)nc2ccccc12", "Potency": "active: 1.64 µM"},
      {"smiles": "O=c1c2ccc(F)cc2sn1-c1ccccc1", "Potency": "inconclusive [cytotoxic, single point]"},
      {"smiles": "Cc1ccc(/C=N/NC(=O)Cc2ccc(Cl)cc2)c(O)c1", "Potency": "active: 18.4 µM"},
      {"smiles": "Cc1nn(C)cc1C(=O)/C=C/c1ccc([N+](=O)[O-])cc1", "Potency": "inconclusive [cytotoxic, single point]"},
      {"smiles": "O=C(Nc1ccc(OC(F)(F)F)cc1)Nc1cccnc1", "Potency": "inactive"},
      {"smiles": "O=C(/C=C/c1ccccc1)NC(=S)Nc1ccc(N2CCOCC2)cc1", "Potency": "inconclusive [cytotoxic, single point]"},
      {"smiles": "CCOc1ccc2nc(SCC(=O)c3ccccc3)sc2c1", "activity, negative = toxicity": "inconclusive: 23.3%"},
      {"smiles": "O=C(Nc1ccc(F)cc1)c1sc2cc(C(F)(F)F)cnc2c1-c1cccs1", "Potency": "inactive"},
      {"smiles": "COc1cccc(C2=NOC(C(=O)NC3CCCCC3)C2)c1", "note": "(configuration not stated)", "activity, negative = toxicity": "inconclusive: -8.67% [cytotoxic]"},
      {"smiles": "O=C(c1ccc(Cl)c([N+](=O)[O-])c1)N1CCN(c2ccccc2)CC1", "Potency": "inconclusive [cytotoxic, single point]"},
      {"smiles": "Cc1ccc(-c2ccc(=O)n(Cc3ccc(F)cc3Cl)n2)cc1", "Potency": "inconclusive [cytotoxic, partial curve, poor fit]"},
      {"smiles": "COc1ccc(N(C(=O)C(C)C)S(=O)(=O)c2ccc(Cl)cc2)cc1", "Potency": "inconclusive [rising, full curve, poor fit]"},
      {"smiles": "O=C(NCC1CCOCC1)c1ccc(-c2ccc(F)c(F)c2)c2ccoc12", "Potency": "inconclusive [cytotoxic, single point]"},
      {"smiles": "O=C(CNC(=O)/C(=C\\c1ccc(Br)cc1)NC(=O)c1ccccc1)OCc1ccccc1", "Potency": "inconclusive [cytotoxic, single point]"},
      {"smiles": "O=S(=O)(c1cnc(Cl)c(Cl)c1)N1CCCc2ccccc21", "Potency": "inconclusive [cytotoxic, single point]"},
      {"smiles": "CN(C)CCCNC(=O)c1ccc(-c2nc(-c3ccc(Cl)cc3)cs2)cc1", "Potency": "inconclusive [cytotoxic, single point]"},
      {"smiles": "Cc1ccc(N2CCOCC2)c2c1C(=O)c1ccccc1C2=O", "Potency": "inconclusive [cytotoxic, single point]"},
      {"smiles": "Cc1ccc2nc(NC(=O)C3CCN(C(=O)c4ccc(F)cc4)CC3)sc2c1", "Potency": "inactive"},
      {"smiles": "CCn1ccnc1[C@@H]1C[C@H]2CN(Cc3ccccc3OC)C(=O)[C@]23CCCN13", "Potency": "inactive"},
      {"smiles": "COc1ccc(-c2nc3c4ccccc4ccn3c2Cc2ccccc2)cc1OC", "Potency": "inconclusive [cytotoxic, single point]"},
      {"smiles": "CCN(CC)S(=O)(=O)c1ccc(C(=O)Nc2cccc(C)c2)cc1", "Potency": "inactive"},
      {"smiles": "Nc1ccc2c(c1)C(=O)CCC2", "Potency": "inactive"},
      {"smiles": "FC(F)(F)c1nc(N2CCCC2)ncc1-c1nnnn1-c1ccc(Cl)cc1", "Potency": "inconclusive [cytotoxic, single point]"},
      {"smiles": "Cc1ccccc1N1C(S)=C(C#N)C(=O)NC1c1cccs1", "note": "(configuration not stated)", "Potency": "inactive"},
      {"smiles": "CCSC1=NC(C)(C)C=C(/C=C/c2ccc(Cl)cc2Cl)N1", "Potency": "inconclusive [cytotoxic, single point]"},
      {"smiles": "Cc1nc(C)c(-c2ccc(SCC(=O)Nc3ccc(F)cc3F)nn2)s1", "Potency": "inactive"},
      {"smiles": "COc1ccccc1Nc1c2ccccc2nc2ccccc12", "Potency": "inconclusive [cytotoxic, single point]"},
      {"smiles": "CCN(CC)c1ccc(C(=C2C=CC(=[N+](CC)CC)C=C2)c2ccc(S(=O)(=O)O)cc2S(=O)(=O)[O-])cc1", "Potency": "inconclusive [cytotoxic, partial curve]"},
      {"smiles": "O=[N+]([O-])c1ccc(-c2nc3ccc([N+](=O)[O-])cc3[nH]2)cc1", "Potency": "inconclusive [cytotoxic, single point]"},
      {"smiles": "O=CNc1cc(-c2ccccc2Oc2ccccc2)cn2c(-c3ccc(F)cc3)cnc12", "Potency": "inconclusive [cytotoxic, single point]"},
      {"smiles": "N#C/C(=C\\c1cn[nH]c1-c1ccc(Cl)cc1)C(=O)NC1CC1", "Potency": "inactive"},
      {"smiles": "CCC(CC)NC(=O)c1cc2c(C)nn(Cc3ccccc3Cl)c2s1", "Potency": "inconclusive [cytotoxic, single point]"},
      {"smiles": "CS(=O)(=O)N(CC(O)Cn1c2ccccc2c2ccccc21)c1cccc2ccccc12", "note": "(configuration not stated)", "Potency": "active: 20.6 µM"},
      {"smiles": "Cc1cccn2c(=O)c3cc(S(=O)(=O)c4ccc(F)cc4)c(=N)n(Cc4ccco4)c3nc12", "Potency": "active: 23.1 µM"},
      {"smiles": "CC1(C)CC2(C)OC(=N)C1(C#N)C2(C#N)C#N", "note": "(configuration not stated)", "Potency": "inconclusive [cytotoxic, single point]"},
      {"smiles": "CN(C)CCOc1ccc(-c2c(-c3ccsc3)sc3ccccc23)cc1", "Potency": "inconclusive [cytotoxic, single point]"},
      {"smiles": "COc1ccc(-n2ncc3c(SCC(=O)OC(C)C)ncnc32)cc1", "Potency": "inactive"},
      {"smiles": "CCn1cc(C(=O)NC(C)C)c(=O)c2cc(F)c(N3CCN(C(=O)c4ccco4)CC3)cc21", "Potency": "inactive"},
      {"smiles": "O=C(Nc1ncc2c(n1)-c1ccccc1CC2)c1cccc(Cl)c1", "Potency": "inconclusive [cytotoxic, single point]"},
      {"smiles": "Cc1cc(C)cc(NS(=O)(=O)c2ccc3c(c2)c(=O)n(C)c(=O)n3C)c1", "Potency": "active: 3.16 µM"},
      {"smiles": "CN(CCC(=O)Nc1ccc(Cl)cc1)Cc1ccccc1", "Potency": "active: 14.6 µM"},
      {"smiles": "O=C(CCl)Nc1sccc1C(=O)c1ccccc1", "Potency": "inconclusive [cytotoxic, single point]"},
      {"smiles": "CCN(CC)C(=O)c1sc(NC(=O)c2c(OC)cccc2OC)c(C#N)c1C", "Potency": "inactive"},
      {"smiles": "COc1cc2ccccc2cc1C(=O)Nc1ccc(Cc2ccncc2)cc1", "Potency": "inconclusive [cytotoxic, single point]"},
      {"smiles": "O=[N+]([O-])c1cc(S(=O)(=O)N2CCCCCC2)ccc1Cl", "Potency": "inconclusive [cytotoxic, single point]"},
      {"smiles": "CC(C)OCCCNC1=C(Cl)C(=O)c2ccccc2C1=O", "Potency": "inconclusive [cytotoxic, single point]"},
      {"smiles": "CN(C)CCNC(=O)c1cccc2nc3cccc(F)c3nc12", "Potency": "active: 7.31 µM"},
      {"smiles": "CCOc1cc(CN2CCc3c([nH]c4ccccc34)C2)ccc1OC", "Potency": "inconclusive [cytotoxic, partial curve]"},
      {"smiles": "O=C(CSc1ccccc1)NCC1(N2CCCCC2)CCCCC1", "Potency": "inactive"},
      {"smiles": "CCc1ccc(Nc2ncccc2C#N)cc1", "Potency": "inactive"},
      {"smiles": "CCOC(=O)C1=CC[C@@H](c2ccccc2)N(S(=O)(=O)c2ccc(C)cc2)[C@@H]1C#N", "Potency": "inconclusive [cytotoxic, single point]"},
      {"smiles": "O=C1CC(=O)Nc2ccccc2N1", "Potency": "inactive"},
      {"smiles": "N#Cc1ccc(/C=C/C(=O)c2ccccc2)cc1", "Potency": "inconclusive [cytotoxic, single point]"},
      {"smiles": "CCOC(=O)C1(CCOc2ccccc2)CCN(C(=O)c2ccc(-n3cccn3)cc2)CC1", "Potency": "inconclusive [cytotoxic, single point]"},
      {"smiles": "COc1cccc(/C=N/NC(=O)Cn2nc(C)c([N+](=O)[O-])c2C)c1O", "Potency": "active: 18.4 µM"},
      {"smiles": "Cc1ccc2cc(C=O)c(N3CCOCC3)nc2c1C", "Potency": "inconclusive [cytotoxic, single point]"},
      {"smiles": "COc1cc2c(cc1NC(=O)CSc1nc3ccccc3[nH]1)oc1ccccc12", "Potency": "inconclusive [cytotoxic, single point]"},
      {"smiles": "COC(=O)Cn1cc(/C=N/NC(=O)COc2cccc3cccnc23)c2ccccc21", "Potency": "inconclusive [rising, partial curve, poor fit]"},
      {"smiles": "COCCCNC(=O)c1cc(C(=O)c2c(-c3c(Cl)cccc3Cl)noc2C)c[nH]1", "Potency": "inconclusive [cytotoxic, single point]"},
      {"smiles": "CCOc1cc(NS(=O)(=O)c2ccc(OC)cc2)c(OCC)cc1NC(=O)c1ccco1", "Potency": "inconclusive [cytotoxic, single point]"},
      {"smiles": "CC(C)N1C(=O)c2ccccc2C1C(=O)NC1CCCCCC1", "note": "(configuration not stated)", "Potency": "inactive"},
      {"smiles": "CCOc1ccc(/C=N/NC(=O)CC(=O)Nc2ccc(Cl)c(Cl)c2)cc1", "Potency": "inconclusive [cytotoxic, single point]"},
      {"smiles": "Cc1cccc(C)c1-n1nnnc1C1c2ccccc2C(=O)N1C1CC1", "note": "(configuration not stated)", "Potency": "inconclusive [rising, single point]"},
      {"smiles": "COc1ccc(NC(=O)CSc2nnc(-c3cccs3)n2-c2ccccc2)cc1", "Potency": "inconclusive [cytotoxic, single point]"},
      {"smiles": "COc1ccc(OC)c(NC(=O)CN(c2ccc(C(C)C)cc2)S(=O)(=O)c2c(C)noc2C)c1", "Potency": "inconclusive [cytotoxic, partial curve]"},
      {"smiles": "CC1(c2ccc(Cl)cc2)NC(=O)N(CC(=O)NC(=O)NCc2ccco2)C1=O", "note": "(configuration not stated)", "Potency": "inconclusive [cytotoxic, single point]"},
      {"smiles": "CN(C)CCCNC(=S)Nc1ccc(-c2ccccc2)cc1", "Potency": "inconclusive [cytotoxic, single point]"}
    ]}
  ]
}
